The list shows a part of the results. At the low end of the ranking the order means little.

This experiment deals with MYC (p64) + MAX (p21), in MYC:MAX. The experiment can be described thus: protein-binding microarray (anti-MAX antibody). Conditions: PBM: 15 mM Tris-HCl pH 7.5, 100 mM KCl, 0.075% NP40, 7.5 mM beta-mercaptoethanol, 375 ng/ul BSA, 8 ng/ul poly(dA-dT):(dA-dT), 550 ng complex, 60 min, room …; high values mean tight binding; double strand, one strand shown; sequences stand for … in CCGGC…TTAATAGCTAAGATTACTATATCGACG
For GCGTGCTAGTGA, the binding signal (log2 normalized fluorescence) is 0.774.

Consider TGAATTGATGTA, for which the binding signal (log2 normalized fluorescence) was determined as 0.0418.

As for TGATTAATTGTA, the binding signal (log2 normalized fluorescence) was -0.217.

Regarding TGATTATATGTA, the binding signal (log2 normalized fluorescence) was -0.0492.

For the sequence TGATCAAGCGTA, the binding signal (log2 normalized fluorescence) worked out at 0.0726.

For the sequence TGAGATAAAGTA, the binding signal (log2 normalized fluorescence) is -0.28.

As to TGACACGTTAGA, the binding signal (log2 normalized fluorescence) is 0.482.

With TGAAAGCCCGTA, the binding signal (log2 normalized fluorescence) is 0.0543.

On to TGAGGCCGAGTA, for which the binding signal (log2 normalized fluorescence) was -0.0913.

Take TGAGCGACGGTA: the binding signal (log2 normalized fluorescence) was -0.0101.

For the sequence TGACGTTAGGTA, the binding signal (log2 normalized fluorescence) was determined as 0.206.

Turning to TGAAGACAAGTA, the binding signal (log2 normalized fluorescence) came out at 0.102.

Take TGAGAAACCGTA: the binding signal (log2 normalized fluorescence) came to 0.0763.

On to TGACACGTGCAG, for which the binding signal (log2 normalized fluorescence) was 0.746.

Turning to TGCACCGTGGTA, the binding signal (log2 normalized fluorescence) stood at 0.506.

As for TGACCTTATGTA, the binding signal (log2 normalized fluorescence) is 0.341.

Take TGACACGGGATA: the binding signal (log2 normalized fluorescence) was found to be 0.287.

For TGACTGCAGGTA, the binding signal (log2 normalized fluorescence) is -0.00807.

Take TGATGCGCGGTA: the binding signal (log2 normalized fluorescence) is 0.198.

TGAATATAAGTA: the binding signal (log2 normalized fluorescence) was -0.206.

Turning to TGAAACCAAGTA, the binding signal (log2 normalized fluorescence) came out at 0.0737.

Turning to TTTGGTAAGTAG, the binding signal (log2 normalized fluorescence) was -0.178.

For the sequence TGACACGTGTCG, the binding signal (log2 normalized fluorescence) amounted to 0.947.

TGACGCAATGTA: the binding signal (log2 normalized fluorescence) turned out to be 0.279.

For TGACACCTGGTG, the binding signal (log2 normalized fluorescence) came out at 0.409.

On to TGAACGATGGTA, for which the binding signal (log2 normalized fluorescence) is -0.0668.

Turning to TGACACGTGCGG, the binding signal (log2 normalized fluorescence) amounted to 0.707.

For the sequence TGATGAATGGTA, the binding signal (log2 normalized fluorescence) came to 0.279.

For the sequence TGATGTCACGTA, the binding signal (log2 normalized fluorescence) was determined as 0.201.

Regarding TGACACGAACTA, the binding signal (log2 normalized fluorescence) was 0.476.

On to TGAAATTCTGTA, for which the binding signal (log2 normalized fluorescence) was -0.159.

For TGAACCTTGGTA, the binding signal (log2 normalized fluorescence) was -0.012.

Regarding TGATGCCGGGTA, the binding signal (log2 normalized fluorescence) was -0.0843.

On to TGATACACTGTA, for which the binding signal (log2 normalized fluorescence) was found to be 0.202.

With TGAAAGATTGTA, the binding signal (log2 normalized fluorescence) is -0.0655.

For TGAAAATCTGTA, the binding signal (log2 normalized fluorescence) is -0.1.

Take TGACTACCTGTA: the binding signal (log2 normalized fluorescence) was determined as 0.224.

Take TGAAGGGTTGTA: the binding signal (log2 normalized fluorescence) came to 0.00834.

TGATACCTGCTA: the binding signal (log2 normalized fluorescence) turned out to be 0.035.

Take TGATATATAGTA: the binding signal (log2 normalized fluorescence) was -0.0329.

For TGACGCTGCGTA, the binding signal (log2 normalized fluorescence) was 0.0697.

As to TGATTATCCGTA, the binding signal (log2 normalized fluorescence) is -0.136.

For TGACTCATTGTA, the binding signal (log2 normalized fluorescence) was 0.249.

TGAAGAACCGTA: the binding signal (log2 normalized fluorescence) amounted to 0.0987.

On to AGACACGCGATA, for which the binding signal (log2 normalized fluorescence) stood at 0.437.

Consider TGACTAGGCGTA, for which the binding signal (log2 normalized fluorescence) was 0.00532.

For the sequence TGATGCTGAGTA, the binding signal (log2 normalized fluorescence) is -0.0723.

On to TGAGACACAGTA, for which the binding signal (log2 normalized fluorescence) came to 0.116.

Regarding TGATAGAATGTA, the binding signal (log2 normalized fluorescence) is 0.0693.

Regarding TGAAAAGTTGTA, the binding signal (log2 normalized fluorescence) is -0.0404.

Regarding TGATCATAGGTA, the binding signal (log2 normalized fluorescence) turned out to be 0.0899.

With ACACACGTGGTA, the binding signal (log2 normalized fluorescence) turned out to be 0.804.

TGATGTCCCGTA: the binding signal (log2 normalized fluorescence) was 0.0937.

Consider TGATACCTAGTA, for which the binding signal (log2 normalized fluorescence) is -0.122.

In the case of TGACTGTGGGTA, the binding signal (log2 normalized fluorescence) was -0.0687.

Turning to TGACCCGTAGTA, the binding signal (log2 normalized fluorescence) turned out to be 0.177.

TGAGCCACAGTA: the binding signal (log2 normalized fluorescence) was determined as 0.145.

TGAATATTTGTA: the binding signal (log2 normalized fluorescence) was -0.164.

Turning to TGATGTGGAGTA, the binding signal (log2 normalized fluorescence) worked out at 0.148.

With TGACCTTCTGTA, the binding signal (log2 normalized fluorescence) turned out to be 0.139.

Consider TGACTACTTGTA, for which the binding signal (log2 normalized fluorescence) stood at 0.0872.

As to TGATCGGCCGTA, the binding signal (log2 normalized fluorescence) is -0.0788.

For TAACACGAGGTA, the binding signal (log2 normalized fluorescence) is 0.776.

With TGAGAGACCGTA, the binding signal (log2 normalized fluorescence) came out at 0.0127.

As for TGACACGCACTA, the binding signal (log2 normalized fluorescence) was determined as 0.532.

With TGATACCTCGTA, the binding signal (log2 normalized fluorescence) turned out to be 0.199.

For the sequence TGAACCGATGTA, the binding signal (log2 normalized fluorescence) came out at 0.0618.

For the sequence TGAACGCCTGTA, the binding signal (log2 normalized fluorescence) turned out to be 0.351.

For the sequence TGAGCACCTGTA, the binding signal (log2 normalized fluorescence) came to 0.293.

In the case of TGACTCAGGGTA, the binding signal (log2 normalized fluorescence) was found to be 0.123.

For the sequence TGATCCGCGGTA, the binding signal (log2 normalized fluorescence) came to 0.108.

Take TGACCGCCGGTA: the binding signal (log2 normalized fluorescence) was -0.0102.

As to TGACACGTGGTG, the binding signal (log2 normalized fluorescence) worked out at 0.534.

With TGAATCACCGTA, the binding signal (log2 normalized fluorescence) is 0.124.

For TGAGGACTTGTA, the binding signal (log2 normalized fluorescence) is -0.00169.

In the case of TGAGTTTGGGTA, the binding signal (log2 normalized fluorescence) was -0.286.

For the sequence TGACAGGTGGCA, the binding signal (log2 normalized fluorescence) turned out to be 0.531.

In the case of TGACTTAGCGTA, the binding signal (log2 normalized fluorescence) was -0.0142.

Turning to TGATGTCATGTA, the binding signal (log2 normalized fluorescence) was determined as 0.23.

With TGACGCCTAGTA, the binding signal (log2 normalized fluorescence) is -0.0648.

Consider TGAATTACAGTA, for which the binding signal (log2 normalized fluorescence) came to 0.0443.

Consider TGAAGTTCCGTA, for which the binding signal (log2 normalized fluorescence) was 0.0203.

Turning to TGACACGCGGAA, the binding signal (log2 normalized fluorescence) came out at 0.709.

For TGACTGTCAGTA, the binding signal (log2 normalized fluorescence) is 0.183.

As to TGATGTCGAGTA, the binding signal (log2 normalized fluorescence) was 0.132.

In the case of TGACAGCCGGTA, the binding signal (log2 normalized fluorescence) worked out at 0.0702.

As to TGATGTCTGGTA, the binding signal (log2 normalized fluorescence) is 0.207.

Regarding TGAAGAAGCGTA, the binding signal (log2 normalized fluorescence) was determined as 0.18.

These data come from PMC5515408.
